# Where a chain is given by its changes, count along the chain named. Names and notes keep the numbering of the source.
# T1: recombinant human IL-18 (human, UniProt Q14116 37-193)
# T1 sequence (looked up): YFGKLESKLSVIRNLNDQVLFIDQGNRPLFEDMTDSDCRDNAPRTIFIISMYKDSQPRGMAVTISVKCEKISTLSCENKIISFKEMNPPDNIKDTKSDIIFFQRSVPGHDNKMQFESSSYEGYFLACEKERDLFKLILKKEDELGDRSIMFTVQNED
# B1: hIL18Rb.hIL18BPa (58-192) (C129S).TG.hFc (Fc fusion)
# chain: FNISGCSTKKLLWTYSTRSEEEFVLFCDLPEPQKSHFSHRNRLSPKQVPEHLPFMGSNDLSDVQWYQQPSNGDPLEDIRKSYPHIIQDKCTLHFLTPGVNNSGSYICRPKMIKSPYDVAACVKMILEVKPQTNASCEYSASHKQDLLLGSTGSISCPSLSCQSDAQSPAVTWYKNGKLLSVERSNRIVVDEVYDYHQGTYVCDYTQSDTVSSWTVRAVVQVRTIVGDTKLKPDILDPVEDTLEVELGKPLTISCKARFGFERVFNPVIKWYIKDSDLEWEVSVPEAKSIKSTLKDEIIERNIILEKVTQRDLRRKFVCFVQNSIGNTTQSVQLKEKRSGAAKQCPALEVTWPEVEVPLNGTLSLSCVACSRFPNFSILYWLGNGSFIEHLPGRLWEGSTSRERGSTGTQLSKALVLEQLTPALHSTNFSCVLVDPEQVVQRHVVLAQLWAGLRATLPPTQEALPSSHSSPQQQGTG[letters of human IgG1 Fc not shown]
# B2: hIL18BPa (58-192) (C129S).hFc (Fc fusion)
# chain: AAKQCPALEVTWPEVEVPLNGTLSLSCVACSRFPNFSILYWLGNGSFIEHLPGRLWEGSTSRERGSTGTQLSKALVLEQLTPALHSTNFSCVLVDPEQVVQRHVVLAQLWAGLRATLPPTQEALPSSHSSPQQQG[letters of human IgG1 Fc not shown]
# B3: hIL18BPa (58-192) (C129H).hFc (Fc fusion)
# chain: B2 chain with S72H
# B4: hIL18BPa (58-192) (C129K).hFc (Fc fusion)
# chain: B2 chain with S72K
# B5: hIL18R.SG.hIL18BPa (1-192).SG.hFc (Fc fusion)
# chain: FNISGCSTKKLLWTYSTRSEEEFVLFCDLPEPQKSHFSHRNRLSPKQVPEHLPFMGSNDLSDVQWYQQPSNGDPLEDIRKSYPHIIQDKCTLHFLTPGVNNSGSYICRPKMIKSPYDVAACVKMILEVKPQTNASCEYSASHKQDLLLGSTGSISCPSLSCQSDAQSPAVTWYKNGKLLSVERSNRIVVDEVYDYHQGTYVCDYTQSDTVSSWTVRAVVQVRTIVGDTKLKPDILDPVEDTLEVELGKPLTISCKARFGFERVFNPVIKWYIKDSDLEWEVSVPEAKSIKSTLKDEIIERNIILEKVTQRDLRRKFVCFVQNSIGNTTQSVQLKEKRSGTPVSQTTTAATASVRSTKDPCPSQPPVFPAAKQCPALEVTWPEVEVPLNGTLSLSCVACSRFPNFSILYWLGNGSFIEHLPGRLWEGSTSRERGSTGTQLCKALVLEQLTPALHSTNFSCVLVDPEQVVQRHVVLAQLWAGLRATLPPTQEALPSSHSSPQQQGSG[letters of human IgG1 Fc not shown]
# notes: To be rechecked
# B6: hIL18BPa (58-181) (C129S).TG.hFc (Fc fusion)
# chain: AAKQCPALEVTWPEVEVPLNGTLSLSCVACSRFPNFSILYWLGNGSFIEHLPGRLWEGSTSRERGSTGTQLSKALVLEQLTPALHSTNFSCVLVDPEQVVQRHVVLAQLWAGLRATLPPTQEALTG[letters of human IgG1 Fc not shown]
# B7: hIL18BPa (58-192) (C129S) (S184N).TG.hFc (Fc fusion)
# chain: AAKQCPALEVTWPEVEVPLNGTLSLSCVACSRFPNFSILYWLGNGSFIEHLPGRLWEGSTSRERGSTGTQLSKALVLEQLTPALHSTNFSCVLVDPEQVVQRHVVLAQLWAGLRATLPPTQEALPSNHSSPQQQGTG[letters of human IgG1 Fc not shown]
# B8: hIL18BPa (58-192) (C129S).SG.hFc (Fc fusion)
# chain: B7 chain with N127S, T136S
# B9: hIL18BPa (58-192).TG.hFc (Fc fusion)
# chain: B7 chain with S72C, N127S
# B10: hIL18BPa (58-192) (C129S).TG.hFc (Fc fusion)
# chain: B7 chain with N127S
# B11: hIL18BPa (1-192).SG.hIL18Rb.SG.hFc (Fc fusion)
# chain: TPVSQTTTAATASVRSTKDPCPSQPPVFPAAKQCPALEVTWPEVEVPLNGTLSLSCVACSRFPNFSILYWLGNGSFIEHLPGRLWEGSTSRERGSTGTQLCKALVLEQLTPALHSTNFSCVLVDPEQVVQRHVVLAQLWAGLRATLPPTQEALPSSHSSPQQQGSGFNISGCSTKKLLWTYSTRSEEEFVLFCDLPEPQKSHFSHRNRLSPKQVPEHLPFMGSNDLSDVQWYQQPSNGDPLEDIRKSYPHIIQDKCTLHFLTPGVNNSGSYICRPKMIKSPYDVAACVKMILEVKPQTNASCEYSASHKQDLLLGSTGSISCPSLSCQSDAQSPAVTWYKNGKLLSVERSNRIVVDEVYDYHQGTYVCDYTQSDTVSSWTVRAVVQVRTIVGDTKLKPDILDPVEDTLEVELGKPLTISCKARFGFERVFNPVIKWYIKDSDLEWEVSVPEAKSIKSTLKDEIIERNIILEKVTQRDLRRKFVCFVQNSIGNTTQSVQLKEKRSG[letters of human IgG1 Fc not shown]
# notes: To be rechecked
# B12: hIL18BPa (1-192).SG.hFc (Fc fusion)
# chain: TPVSQTTTAATASVRSTKDPCPSQPPVFPAAKQCPALEVTWPEVEVPLNGTLSLSCVACSRFPNFSILYWLGNGSFIEHLPGRLWEGSTSRERGSTGTQLCKALVLEQLTPALHSTNFSCVLVDPEQVVQRHVVLAQLWAGLRATLPPTQEALPSSHSSPQQQGSG[letters of human IgG1 Fc not shown]
# notes: also called hIL18BPa.hFc
# Biological target: T1, recombinant human IL-18
# Assay: cell-based or functional assay
row,Binder,"IC50 (M), HEK293/NFkB-luciferase bioassay"
1,B1,1.92e-07 M
2,B2,3.7e-11 M
3,B3,8e-11 M
4,B4,1e-10 M
5,B5,4.13e-10 M
6,B6,9e-11 M
7,B7,1.48e-11 M
8,B8,9e-11 M
9,B9,1.2e-10 M
10,B10,4.75e-11 M
11,B11,2.5e-10 M
12,B12,1.16e-10 M

# Biological target: T1, recombinant human IL-18
# Assay: BiaCore 2000; polypeptide captured on chip by anti-human Fc antibodies, human IL-18 injected; kinetic analysis
# Protocol: hIL-18 Binding Affinity. The affinity of the hIL-18-specific polypeptides for human IL-18, produced by transiently expression in CHOK1 cells, was measured using a BiaCore 2000, as described in WO 00/75319, herein specifically incorporated by reference in its entirety. hIL-18-specific polypeptides were captured onto the chip surface using anti-human Fc antibodies (when the polypeptide comprises an Fc component) or directly coupled to the chip. Varying concentrations of human IL-18 were injected over the surface and the time course of association and dissociation was monitored. Kinetic analysis using BIA evaluation software was performed to obtain the KD.
row,Binder,Kd
1,B2,0.0058 nM
2,B3,0.01 nM
3,B4,0.01 nM
4,B5,0.28 nM
5,B10,0.012 nM
6,B11,0.5 nM
7,B12,0.1 nM

# — US20050221433A1 (Regeneron, published 2005)
